Source: article PMC13083723 (Patterns, 2026)
The whole screen tested about 5,400 compounds, of which about 190 (3.5%) showed an effect of 50% or more. The list shows a part of the results.

System: Vero-E6
Test: primary screen, phospholipidosis by LipidTOX staining; higher = more effect of the substance
Details: 10 µM
How it was run: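 Drug-induced phospholipidosis detected with HCS LipidTOX Red reagent in Vero-E6 cells. Compounds tested at 10 μM, with amiodarone (10 μM) as positive control and DMSO (0.1 v/v %) as vehicle.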

In order of falling result_ITMP:
1. CN1CCCN(C(c2ccccc2)c2ccc(Cl)cc2)CC1 (stereo not drawn)  82.5%
2. COc1cccc(Nc2ncnn3ccc(CN4CC[C@@H](N)[C@H](O)C4)c23)c1  59%
3. CCn1c2ccccc2c2cc(CNCc3ccccc3OC)ccc21  56.5%
4. O=c1[nH]c2ccccc2n1CCCN1CCN(C(c2ccccc2)c2ccccc2)CC1  26.4%
5. CCC(Oc1ccc(Cl)cc1)C(=O)OC1CC2CCC(C1)N2C (stereo not drawn)  24.8%
6. COc1cc(COc2cc(N)c(Cl)cc2C(=O)CCC2CCN(CCNS(C)(=O)=O)CC2)cc(OC)c1  23.6%
7. C[C@@H]1CC[C@@]2(OC1)O[C@H]1C[C@H]3[C@@H]4CC=C5C[C@@H](O[C@@H]6O[C@H](CO)[C@@H](O[C@@H]7O[C@@H](C)[C@H](O)[C@@H](O)[C@H]7O)[C@H](O)[C@H]6O[C@@H]6O[C@@H](C)[C@H](O)[C@@H](O)[C@H]6O)CC[C@]5(C)[C@H]4CC[C@]3(C)[C@H]1[C@@H]2C  18.9%
8. Cc1n[nH]c2ccc(-c3cncc(OC[C@@H](N)Cc4ccccc4)c3)cc12  17.2%
9. CN1CCN(C(c2ccccc2)c2ccccc2)CC1  16.1%
10. CCN(CC)CCNC(C(=O)OCCC(C)C)c1ccccc1 (stereo not drawn)  13.7%
11. Cc1ccc(F)c(NC(=O)Nc2ccc(-c3cccc4[nH]nc(N)c34)cc2)c1  9.27%
12. CCOc1ccc2nc(S(N)(=O)=O)sc2c1  6.44%
13. COc1cc2ncnc(Nc3cccc(Cl)c3)c2cc1OC  5.64%
14. C=C[C@@]1(C)CC(=O)[C@]2(O)[C@@]3(C)[C@@H](O)CCC(C)(C)[C@@H]3C(OC(=O)CCN(C)C)C(OC(C)=O)[C@@]2(C)O1 (stereo partly drawn)  4.63%
15. CN1CCCN=C1/C=C/c1cccc(O)c1  4.3%
16. NC(=O)c1ccc(I)c([N+](=O)[O-])c1  3.98%
17. CCCN(C/C=C/I)C1CCc2cccc(O)c2C1 (stereo not drawn)  2.65%
18. c1ccc(-c2oc3ncnc(NC[C@@H]4CCCO4)c3c2-c2ccccc2)cc1  2.58%
19. CC[C@H](CO)Nc1nc(NCc2ccccc2)c2ncn(C(C)C)c2n1  2.12%
20. O=c1[nH]c2ccccc2n1CCCN1CCC(n2c(=O)[nH]c3cc(Cl)ccc32)CC1  1.97%
21. Nc1nc(Cl)nc2c1ncn2[C@@H]1O[C@H](CO)[C@@H](O)[C@H]1O  1.94%
22. CCCN1CCC[C@@H]2Cc3nc(N)ncc3C[C@H]21  1.65%
23. CCOC(=O)[C@H](CCc1ccccc1)N[C@@H](C)C(=O)N1C(=O)N(C)C[C@H]1C(=O)O  1.23%
24. C/C(=C\C(=O)OCCCCCCCCC(=O)O)C[C@@H]1OC[C@H](C[C@@H]2O[C@H]2[C@@H](C)[C@H](C)O)[C@@H](O)[C@H]1O  1.19%
25. CCOc1ccc(C(=O)OCCN(CC)CC)cc1  0.82%
26. CN(c1nccc(=O)[nH]1)C1CCN(c2nc3ccccc3n2Cc2ccc(F)cc2)CC1  0.52%
27. CC(C(=O)O)c1ccc(-c2ccccc2)c(F)c1 (racemic)  0.44%
28. Cc1[nH]nc(C(F)(F)F)c1Cc1sc2c(c1C(=O)N1C[C@](C)(O)CO1)c(=O)n(C)c(=O)n2C(C)C  0.28%
29. CC1CCN=C(N)S1 (stereo not drawn)  0.17%
30. CC(C)N(CCCCOCC(=O)NS(C)(=O)=O)c1cnc(-c2ccccc2)c(-c2ccccc2)n1  0.15%
31. O=C(O)c1ccccc1O  0.08%
32. N[C@H](C(=O)O)c1ccc(O)cc1  0.07%
33. CS(=O)(=O)c1ccc(-c2nnc(/C=C/c3nnc(-c4ccc(C#N)cc4)o3)n2-c2ccccc2Cl)nc1  -0.08%
34. S=C([S-])N1CCCC1  -0.32%
35. O=C1NC(c2ccccc2)(c2ccccc2)C(=O)N1COP(=O)([O-])[O-]  -0.37%
36. Cc1ccc(NC(=O)c2cccc(C(C)(C)C#N)c2)cc1Nc1ccc2ncn(C)c(=O)c2c1  -0.37%
37. O=S(=O)([O-])c1ccc(O)cc1  -0.61%
38. C=CCN1CC[C@]23c4c5ccc(O)c4O[C@H]2/C(=N/NC(=O)c2ccccc2)CC[C@@]3(O)[C@H]1C5  -0.8%
39. COc1ccc(-n2c(SCCCN3C(=O)c4cccc5cccc(c45)C3=O)nnc2-c2ccncc2)cc1  -1.09%
40. CC(C)OC(=O)OCOP(=O)(CO[C@H](C)Cn1cnc2c(N)ncnc21)OCOC(=O)OC(C)C  -1.1%
41. Cc1cc(C)c(S(=O)(=O)Nc2ccccc2C(F)(F)F)c(C)c1  -1.24%
42. Nc1cc(Cl)c(NC2=NCCN2)c(Cl)c1  -1.25%
43. CC(C)[C@H](CO)Nc1nc(Nc2ccc(C(=O)O)c(Cl)c2)c2ncn(C(C)C)c2n1  -1.36%
44. CC1(C(=O)O)NCCc2cc(O)c(O)cc21 (stereo not drawn)  -1.39%
45. Cl/C(=C\n1cncn1)c1ccc(Cl)cc1Cl  -1.41%
46. N#C/C(=C\c1ccc(O)c(O)c1)C(=O)NCCCc1ccccc1  -1.59%
47. C[C@H](NC(=O)CCc1nc2ccccc2c(=O)[nH]1)c1ccccc1 [R4A_0003503_001 / SPE_K24283677]  -1.61%
48. C[C@]12CC[C@@H]3c4ccc(OC(=O)c5ccccc5)cc4CC[C@H]3[C@@H]1CC[C@@H]2O  -1.67%
49. CSc1ccc(C(=O)N[C@@H]2CCCC[C@@H]2NC(=O)CNC(=O)c2cc(C(F)(F)F)ccc2NC(=O)NC(C)C)cc1  -1.71%
50. C[C@H](Cc1ccc(OCC(=O)[O-])cc1)NC[C@H](O)c1cccc(Cl)c1  -1.85%
51. CCCCc1ccc2[nH]c(NC(=O)OC)nc2c1  -1.87%
52. COC(=O)[C@@H]1CC2=CC(=O)CC[C@]2(C)[C@@]23O[C@@H]2C[C@@]2(C)[C@@H](CC[C@@]24CCC(=O)O4)[C@H]13  -1.87%
53. OCCN(CCO)c1nc(N2CCCCC2)c2nc(N(CCO)CCO)nc(N3CCCCC3)c2n1  -1.93%
54. CCOC(=O)c1cnc2c(cnn2CC)c1NN=C(C)C  -1.97%
55. COCC1(CO)C(=O)C2CCN1CC2 (stereo not drawn)  -2.09%
56. CCC(=O)NC1Cc2ccccc2C(c2ccccc2)C1 (stereo not drawn)  -2.11%
57. C/C=C1/[C@H]2C=C(C)C[C@]1(N)c1ccc(=O)[nH]c1C2  -2.16%
58. N#Cc1cnc2cnc(NCc3cccnc3)cc2c1Nc1ccc(F)c(Cl)c1  -2.18%
59. CC(C)[N+](C)(CCC(C(N)=O)(c1ccccc1)c1ccccc1)C(C)C  -2.21%
60. O=C(O)c1ccccc1C(=O)Nc1ccc(S(=O)(=O)Nc2nccs2)cc1  -2.23%
61. CCOC(=O)C1CSC(Cc2ccc(OCc3ccc([N+](=O)[O-])cc3)cc2)N1 (stereo not drawn)  -2.45%
62. Cc1ncc(C[n+]2csc(CCOP(=O)(O)OP(=O)(O)O)c2C)c(N)n1  -2.57%
63. C#C[C@]1(O)CC[C@H]2[C@@H]3CCC4=CC(=O)CC[C@@H]4[C@H]3C(=C)C[C@@]21CC  -2.77%
64. Cc1cccc(C)c1NC(=O)/N=C1\CCCN1C  -2.86%
65. O=C(O)Cc1ccc(CCNS(=O)(=O)c2ccc(Cl)cc2)cc1  -3.05%
66. CCCN(CCC)C(=O)C(CCC(=O)[O-])NC(=O)c1ccccc1 (stereo not drawn)  -3.27%
67. CN(C)C(=O)[C@H](O)[C@H](Cc1ccccc1)NC(=O)c1cc2cc(Cl)ccc2[nH]1  -3.36%
68. O=C(O)c1cc(/N=N/c2ccc(S(=O)(=O)Nc3ccccn3)cc2)ccc1O  -3.52%
69. Oc1c(I)cc(I)c(O)c1I  -3.72%
70. CN(CC(=O)O)C(=N)N  -3.9%
71. C[N+]1([O-])[C@@H]2C[C@@H](OC(=O)[C@H](CO)c3ccccc3)C[C@H]1[C@@H]1O[C@@H]12 (stereo partly drawn)  -4.04%
72. O=c1onc2cnc3ccccc3n12  -4.06%
73. O=c1c(O[C@@H]2O[C@H](CO)[C@H](O)[C@H](O)[C@H]2O)c(-c2ccc(O)c(O)c2)oc2cc(O)cc(O)c12  -4.4%
74. CC1/C=C/C=C/C=C/C=C/C=C/C=C/C=C/C(OC2O[C@H](C)[C@@H](O)[C@H](N)[C@@H]2O)CC(O)C(C(=O)O)C(O)CC(=O)CC(O)CC(O)CC(O)CC(=O)CCCC(=O)CC(=O)OC1C(C)CC(C)C(O)CC(=O)c1ccc(N)cc1 (stereo partly drawn)  -4.6%
75. CC(C)OC(=O)C1=CN(C(=O)c2ccc(F)c(F)c2)CC(C)(C)c2c1[nH]c1ccccc21  -4.6%
76. NC(=O)c1nnn(Cc2cc(Cl)c(C(=O)c3ccc(Cl)cc3)c(Cl)c2)c1N  -4.77%
77. CCc1nc(C)ccc1O  -4.78%
78. CCc1cccc(CC)c1NC(=O)CN(CC(=O)O)CC(=O)O  -4.82%
79. C[C@@H]1C[C@H]2[C@@H]3CCC4=CC(=O)C=C[C@]4(C)[C@@]3(Cl)[C@@H](O)C[C@]2(C)[C@@]1(OC(=O)c1ccco1)C(=O)CCl  -4.87%
80. CCS(=O)(=O)N1CCC[C@@H]2CN3CCc4cc(OC)ccc4[C@@H]3C[C@@H]21  -5.32%
81. N#CCC(=O)NN  -6.26%
82. C[C@]12CCC(=O)C=C1CCC1C2[C@@H](O)C[C@@]2(C)C1CC[C@]2(O)C(=O)CO (stereo partly drawn)  -6.26%
83. Cc1c(-c2cnccn2)ssc1=S  -6.92%
84. Cc1cccc(CC(=O)N2CCc3c2ccc(-c2cn(C)c4ncnc(N)c24)c3F)n1  -7.01%
85. Cn1cc(CCn2cnc(-c3cnn(C)c3)c2-c2ccc(C#N)cc2)cn1  -7.55%
86. O=C(/C=C\n1cnc(-c2cc(C(F)(F)F)cc(C(F)(F)F)c2)n1)N1CC(F)(F)C1  -11.5%
87. O=c1oc2cc(O)ccc2s1  -11.7%
